This list was built around the results that the source calls inconclusive (neither active nor inactive); the mix of calls is not that of the screen. For part of these data: Potencies of inconclusive entries are doubtful fits and often do not repeat. Active and inactive are the calls of the source. Unless noted, the call rests on the fitted dose curve; in most records, active means well fitted curve in the direction sought with a large enough effect; inconclusive means small, poorly fitted or top-dose-only effect, or another doubt; inactive means no such curve, though single readings can be large; an effect the other way counts as inactive or inconclusive.
Columns and labels:
[1] = Cell Viability - Hek293 (AID 427;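 active means compounds whose dose-response curve shows a full or clear partial loss of cell viability, called from curve shape rather than a numeric limit; inconclusive means weak partial curves or an effect only at the top dose; inactive means no dose-dependent loss of viability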;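 further: potency means the concentration at half of the fitted maximal effect; cells exposed to compound for 40 hours at 37 °C before reading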); conditions: qHTS
Outline: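 HEK293 cells in complete medium were exposed to compound for 40 hr at 37 °C, then cellular ATP was read by CellTiter-Glo luminescence. Data were normalized to DMSO (basal) and 100 uM tamoxifen (100% inhibition), and AC50 came from Hill fits.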

[2] = Cell Viability - HepG2 (AID 433; calls by dose curve;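 further: potency means the concentration at half of the fitted maximal effect; potency for ATP loss meaning cytotoxicity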); conditions: qHTS
Outline: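 Read-out is luciferase-based quantitation of cellular ATP as a measure of viable HepG2 cells after 40 h treatment at 37 °C. Signal decrease is scaled between DMSO-only and 100 uM tamoxifen controls, with AC50 fitted by the Hill equation.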

[3] = Cell Viability - HUV-EC-C (AID 542); conditions: HUV-EC-C endothelial cell viability, qHTS; series mostly up to 92.2 µM; further: potency means the concentration at half of the fitted maximal effect; nearly all actives have a fitted effect of over 35% in size
Outline: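 Decrease in cellular ATP, quantified by luciferase luminescence, reflects toxicity in normal human vascular endothelial HUV-EC-C cells given compound for 40 hr in complete culture medium. Values are AC50s from concentration-response curves.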

[4] = Cell Viability - H-4-II-E (AID 543); conditions: H-4-II-E rat hepatoma viability; series mostly up to 92.2 µM; further: potency means the concentration at half of the fitted maximal effect; nearly all actives have a fitted effect of over 35% in size
Outline: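 Here, cytotoxicity is measured in the rat hepatoma line H-4-II-E as loss of intracellular ATP after 40 hr compound treatment, detected by luciferase luminescence.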

[5] = Cellular Toxicity (caspase-3) Jurkat (AID 655); conditions: Jurkat caspase-3 activation, luminescence; caspase-3 activation: at 92.2 µM (top of the series), DMSO = 0%, tamoxifen = 100%;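 further: cells exposed to compound for 16 h at 37 °C before reading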
Outline: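 5000 Jurkat cells/well; compound 16 hr, 37 °C; Caspase-Glo 3/7 added, 20 min RT; luminescence read. Norm: DMSO = 0%, tamoxifen 100 uM = 100%. AC50, Hill model.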

[6] = Cellular Toxicity (caspase-3) HUV-EC-C (AID 656); conditions: HUV-EC-C cells, caspase-3 activation (apoptosis); series mostly up to 92.2 µM; further: potency means the concentration at half of the fitted maximal effect
Outline: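 qHTS; HUV-EC-C, 1000 cells/well; 5 hr settle, 16 hr cmpd, 37°C; Caspase-Glo 3/7, 20 min RT; luminescence. Norm: DMSO = 0%, tamoxifen 100 uM = 100%. Hill-fit AC50.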

[7] = Cellular Toxicity (caspase-3) SHSY5Y (AID 657); conditions: SH-SY5Y caspase-3 activation; series mostly up to 91.7 µM; further: potency means the concentration at half of the fitted maximal effect
Outline: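 qHTS, SH-SY5Y, 1500 cells/well, 5 h pre-incubation 37 °C; compound 16 h 37 °C; Caspase-Glo 3/7 1 h RT; luminescence. Norm.: DMSO = 0, 10 uM staurosporine = 100%. Hill fit → AC50.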

[8] = Cellular Toxicity (caspase-3) MRC-5 (AID 659); conditions: MRC-5 cells, luminescence; Potency: caspase-3 activation; series mostly up to 91.7 µM; further: potency means the concentration at half of the fitted maximal effect
Outline: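 MRC-5 human normal lung fibroblasts, 1500 cells/well, treated 16 h at 37 °C in complete medium. Caspase 3/7 measured by Caspase-Glo luminescence after 1 h at room temperature. Normalized to DMSO and 10 uM staurosporine; AC50 from Hill fit.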

[9] = Cellular Toxicity (caspase-3) Mesangial (AID 660); conditions: mesangial cells, normalized: DMSO 0%, 100 µM tamoxifen 100%; at 91.7 µM (top of the series);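 further: combined caspase 3 and 7 activity read by Caspase-Glo luminescence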
Outline: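 Concentration-response qHTS: compound-induced rise in caspase 3/7 luminescence in human mesangial cells after 16 h, normalized to DMSO and 100 uM tamoxifen controls.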

[10] = Cellular Toxicity (caspase-3) SK-N-SH (AID 661); conditions: SK-N-SH caspase-3 activation, qHTS; caspase-3 activation: at 91.7 µM (top of the series), DMSO as zero, staurosporine as full
Outline: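 Caspase 3/7 activation is measured as a luminescence increase from aminoluciferin released by substrate cleavage in SK-N-SH cells after 16 hr compound treatment; values are AC50 from concentration-response curves.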

[11] = Cellular Toxicity (caspase-3) H-4-II-E (AID 663); conditions: H-4-II-E rat hepatoma; Potency: caspase-3 activation; caspase-3 activation: at 92.2 µM (top of the series), scaled: DMSO 0%, 100 µM tamoxifen 100%;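 further: cells exposed to compound for 16 hr before readout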
Outline: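 Rat hepatoma H-4-II-E cells (1500/well) plated 5 hr, then exposed to compound titrations for 16 hr at 37 °C. Caspase-Glo 3/7 luminescence read after 20 min at RT; data normalized to DMSO and 100 uM tamoxifen, AC50 from Hill fits.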

[12] = Cellular Toxicity (caspase-3) Hek293 (AID 664); conditions: HEK293 caspase-3 activation, DMSO = 0%, 100 µM tamoxifen = 100%; at 92.2 µM (top of the series);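 further: cells exposed to compound for 16 h at 37 °C before readout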
Outline: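 Activation of caspase-3/7 is measured as increased luminescence from cleaved peptide-aminoluciferin substrate in HEK293 cells treated 16 hours at 37 °C. AC50 values come from Hill-equation fits of concentration-response data.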

[13] = Cellular Toxicity (caspase-3) N2a (AID 665); conditions: N2a cells, luminescence; Potency: caspase-3 activation; caspase-3 activation: at 92.2 µM (top of the series), normalized: DMSO 0%, 10 µM staurosporine 100%;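 further: compound exposure lasted 16 h at 37 °C before readout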
Outline: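 Plated mouse neuroblastoma N2a cells received titrated compounds for 16 h in complete medium. Caspase activity was then detected with a peptide-aminoluciferin luminescent reagent.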

[14] = Cellular Toxicity (caspase-3) NIH 3T3 (AID 666); conditions: NIH 3T3 caspase-3 activation, apoptosis/toxicity;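 further: potency means the concentration at half of the fitted maximal effect; caspase signal read after 16 h compound exposure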
Outline: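 Concentration-response qHTS in NIH 3T3 mouse fibroblasts scores caspase-3/7 activation as rising luminescence after 16 hr compound exposure. Signals are scaled between DMSO-only and 100 uM tamoxifen.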

[15] = MultiTox-Fluor Cytotoxicity Assay - LYMP1-001 - Dead Cells (AID 946); conditions: LYMP1-001 lymphoblastoid cells, dead-cell protease fluorescence; cytotoxicity (dead cells): at 92.2 µM (top of the series); further: potency means the concentration at half of the fitted maximal effect
Outline: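 LYMP1-001 lymphoblastoid cells (2500/well) treated 16 h at 37 C. Dead-cell protease cleavage of bis-AAF-R110 read at Ex/Em 485/520. Normalized to DMSO and 15 uM tetraoctylammonium bromide; AC50 from Hill fits.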

[16] = MultiTox-Fluor Cytotoxicity Assay - LYMP1-001 - Live Cells (AID 947); conditions: LYMP1-001 lymphoblastoid cells, live-cell protease fluorescence viability; series mostly up to 92.2 µM; further: potency means the concentration at half of the fitted maximal effect
[17] = Cell Viability - LYMP1-002 - Assay at 16 hr (AID 948); conditions: LYMP1-002 lymphoblastoid cell viability; series mostly up to 92.2 µM; further: potency means the concentration at half of the fitted maximal effect
Outline: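 Seed 2500 LYMP1-002 cells per well in complete medium and hold 5 hr at 37 C. Add compound across a concentration series and incubate 16 hr at 37 C. Add CellTiter-Glo, wait 30 min at room temperature, read luminescence.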

[18] = MultiTox-Fluor Cytotoxicity Assay - LYMP1-002 - Live Cells (AID 955); conditions: LYMP1-002 lymphoblastoid live-cell protease fluorescence viability; series mostly up to 46.1 µM; further: potency means the concentration at half of the fitted maximal effect
Outline: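 Cytotoxicity in the human lymphoblastoid line LYMP1-002 is measured as loss of live-cell protease activity after 16 h treatment in complete culture medium. AC50 is derived from Hill-equation fits of qHTS concentration-response data.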

[19] = Cell Viability - LYMP1-003 - Assay at 24 hr (AID 963); conditions: LYMP1-003 lymphoblastoid cell viability; series mostly up to 92.2 µM; further: potency means the concentration at half of the fitted maximal effect
Outline: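 Acute toxicity in LYMP1-003 lymphoblastoid cells: 24 hr compound treatment at 37 C, ATP measured with CellTiter-Glo after 30 min at room temperature. AC50 derived by fitting the Hill equation to qHTS titrations.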

[20] = Cell Viability - LYMP2-004 (AID 966); conditions: LYMP2-004 lymphoblastoid cell viability, qHTS; series mostly up to 92.2 µM; further: potency means the concentration at half of the fitted maximal effect; nearly all actives have a fitted effect of over 65% in size
Outline: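 Acute toxicity is scored as a concentration-dependent drop in intracellular ATP, quantified by luciferase luminescence, in human lymphoblastoid cells exposed to compound for 24 hr. AC50 derives from Hill-equation modelling.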

[21] = Cell Viability - LYMP2-025 (AID 976); conditions: LYMP2-025 lymphoblastoid cell viability; activity change, negative = cytotoxicity: at 92.2 µM (top of the series); further: potency means the concentration at half of the fitted maximal effect
Outline: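 In qHTS format, LYMP2-025 lymphoblastoid cells in complete culture medium received compound for 24 hr; ATP-based CellTiter-Glo signal gave viability, with AC50 derived by Hill equation.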

[22] = Cell Viability - LYMP2-002 (AID 977); conditions: LYMP2-002 lymphoblastoid cell viability, qHTS; activity change, negative = cytotoxic: at 92.2 µM (top of the series);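 further: potency means the concentration at half of the fitted maximal effect; compound exposure lasted 24 h at 37 °C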
Outline: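 Human lymphoblastoid LYMP2-002 cells, 2500 per well, exposed to compounds for 24 h at 37 C in complete medium; viability read as intracellular ATP by CellTiter-Glo luminescence, AC50 from Hill fits.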

[23] = Cell Viability - LYMP2-020 (AID 986); conditions: activity change, negative = viability loss: at 92.2 µM (top of the series); further: potency means the concentration at half of the fitted maximal effect; nearly all actives have a fitted effect of over 55% in size
Outline: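 Acute cytotoxicity in a human lymphoblastoid line is scored as a concentration-dependent fall in cellular ATP after 24 hr at 37 C in complete medium. The positive control is tetraoctylammonium bromide, and potency is given as Hill-fit AC50.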

[24] = Cell Viability - LYMP1-002 - Assay at 24 hr (AID 993); conditions: LYMP1-002 lymphoblastoid cells viability; series mostly up to 92.2 µM; further: potency means the concentration at half of the fitted maximal effect
Outline: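 qHTS, LYMP1-002 lymphoblastoid, 24 h cpd, 37 C, CellTiter-Glo ATP luminescence; AC50 via Hill eq.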

[25] = molecular target: Bile acid receptor (Homo sapiens) (UniProt Q96RI1); assay: qHTS assay for small molecule antagonists of farnesoid X receptor signaling (AID 588526; calls by dose curve; further: potency means the concentration at half of the fitted maximal effect); conditions: HEK293T FXR-UAS-bla, beta-lactamase ratio, antagonist mode; activity change, negative = inhibition: at 76.7 µM (top of the series)
Outline: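 Antagonist mode: titrated compounds tested against chenodeoxycholic acid stimulation (normalized to 50 uM CDCA and DMSO) in GeneBLAzer HEK293T cells for 16 h. Beta-lactamase read by CCF4 fluorescence; IC50 from Hill fits.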

[26] = molecular target: Glucocorticoid receptor (Homo sapiens) (UniProt P04150); assay: qHTS assay for small molecule antagonists of glucocorticoid receptor signaling (AID 588533; active means well fitted inhibition curve with a large enough effect in the signal ratio, with a control signal flat, not every such curve was filed as active; inconclusive means small, poorly fitted or top-dose-only effect, or effect the other way, or a change in a side signal; the % refers to the signal ratio;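 further: cells stimulated with 2 nM dexamethasone as agonist; on the % scale 0 is the no-effect control and ±100 the full control effect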); conditions: HeLa MMTV-bla, GRE beta-lactamase ratio, antagonist mode, 18 h; activity change, negative = inhibition: at 76.8 µM (top of the series)
[27] = molecular target: Peroxisome proliferator-activated receptor delta (Homo sapiens) (UniProt Q03181); assay: qHTS assay for small molecule antagonists of peroxisome proliferator-activated receptor delta signaling (AID 588535; active means well fitted inhibition curve with a large enough effect in the signal ratio, with a control signal flat, not every such curve was filed as active; inconclusive means small, poorly fitted or top-dose-only effect, or effect the other way, or a change in a side signal; inactive means no such curve, though single readings can be large or run the other way; the % refers to the signal ratio); conditions: HEK293T PPARd-UAS-bla, beta-lactamase FRET ratio, 18 h; activity change, negative = inhibition: at 76.7 µM (top of the series)
Outline: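 Cells were seeded at 4000 per well in assay medium containing 2% charcoal/dextran FBS and held 5 hrs at 37 C. Compounds were then added for 18 hrs. CCF4 substrate was applied for 2 hrs at room temperature before fluorescence reading.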

[28] = molecular target: Peroxisome proliferator-activated receptor gamma (Homo sapiens) (UniProt P37231); assay: qHTS assay for small molecule agonists of peroxisome proliferator-activated receptor gamma signaling (AID 588536; active means well fitted curve in the direction sought with a large enough effect in the signal ratio, with a control signal flat, not every such curve was filed as active; inconclusive means small, poorly fitted or top-dose-only effect, or effect the other way, or a change in a side signal; inactive means no such curve, though single readings can be large or run the other way; the % refers to the signal ratio; further: potency means the concentration at half of the fitted maximal effect); conditions: HEK293 PPARg-UAS-bla, beta-lactamase ratio, 16 h; activation: at 76.7 µM (top of the series), percent of rosiglitazone response, DMSO as zero
Outline: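 GeneBLAzer PPAR-gamma-UAS-bla HEK293 cells in 1% charcoal/dextran-treated FBS medium were treated 16 h at 37 C with compounds. Beta-lactamase activity was read by CCF4 ratio (460/530 nm). Response was normalized to 2 uM rosiglitazone (100%) and DMSO, then Hill-fitted for EC50 and efficacy.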

[29] = molecular target: Peroxisome proliferator-activated receptor gamma (Homo sapiens) (UniProt P37231); assay: qHTS assay for small molecule antagonists of peroxisome proliferator-activated receptor gamma signaling (AID 588537; active means well fitted inhibition curve with a large enough effect in the signal ratio, with a control signal flat, not every such curve was filed as active; inconclusive means small, poorly fitted or top-dose-only effect, or effect the other way, or a change in a side signal; the % refers to the signal ratio;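 further: reporter cells co-stimulated with 50 nM rosiglitazone agonist during compound treatment; % of control where 0% means no effect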); conditions: HEK293 PPARg-UAS-bla, beta-lactamase ratio, antagonist mode; activity, negative = inhibition: at 76.8 µM (top of the series)
Outline: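 Step one: plate 3000 HEK293 UAS-bla cells per well in medium with 1% stripped serum and hold 6-6.5 h at 37 C. Step two: add compound and 50 nM agonist for 16 h. Step three: CCF4 loading, fluorescence read.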

[30] = molecular target: Vitamin D3 receptor (Homo sapiens) (UniProt P11473); assay: qHTS assay for small molecule antagonists of vitamin D receptor signaling (AID 588541; calls by dose curve;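 further: receptor activated by calcitriol during compound treatment; on the % scale 0 is the no-effect control and ±100 the full control effect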); conditions: HEK293T VDR-UAS-bla, beta-lactamase ratio, antagonist mode; activity change, negative = inhibition: at 76.7 µM (top of the series)
Tags describe the fitted curve by direction and shape or compound fluorescence and quenching.

Chain of UniProt P11473 (P11473 whole entry, looked up): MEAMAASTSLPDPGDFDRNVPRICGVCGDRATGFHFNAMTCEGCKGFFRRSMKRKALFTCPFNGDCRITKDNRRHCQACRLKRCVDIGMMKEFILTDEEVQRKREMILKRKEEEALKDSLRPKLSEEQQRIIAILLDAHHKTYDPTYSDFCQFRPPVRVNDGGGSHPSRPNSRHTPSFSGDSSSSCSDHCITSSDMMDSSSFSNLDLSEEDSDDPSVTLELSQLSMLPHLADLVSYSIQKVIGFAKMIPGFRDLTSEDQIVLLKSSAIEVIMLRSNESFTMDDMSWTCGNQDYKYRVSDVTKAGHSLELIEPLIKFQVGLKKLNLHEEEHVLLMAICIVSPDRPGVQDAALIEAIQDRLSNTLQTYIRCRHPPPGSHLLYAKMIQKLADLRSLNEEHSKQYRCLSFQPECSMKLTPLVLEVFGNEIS
Chain of UniProt Q03181 (Q03181 whole entry, looked up): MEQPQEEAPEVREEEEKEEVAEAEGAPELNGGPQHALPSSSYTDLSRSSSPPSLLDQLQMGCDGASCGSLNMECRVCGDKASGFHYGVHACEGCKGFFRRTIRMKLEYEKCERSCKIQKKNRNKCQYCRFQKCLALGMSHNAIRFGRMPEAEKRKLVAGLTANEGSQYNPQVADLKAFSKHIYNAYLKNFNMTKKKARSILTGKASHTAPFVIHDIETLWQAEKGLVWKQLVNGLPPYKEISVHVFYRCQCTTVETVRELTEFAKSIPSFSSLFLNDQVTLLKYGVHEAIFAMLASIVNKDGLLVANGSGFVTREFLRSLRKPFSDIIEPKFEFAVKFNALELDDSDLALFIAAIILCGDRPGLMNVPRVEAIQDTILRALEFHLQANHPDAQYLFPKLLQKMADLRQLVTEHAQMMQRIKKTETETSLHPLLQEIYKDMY

CC1=C(/C=C/C(C)=C/C=C/C(C)=C\C=O)C(C)(C)CCC1
active: Potency [1] 51.9 µM | Potency [2] 66.1 µM | Potency [3] 31.6 µM | Potency [4] 12.6 µM | caspase-3 activation [9] 90.3% | caspase-3 activation [11] 113% | Potency [19] 63.1 µM | Potency [20] 31.6 µM | Potency [22] 50.1 µM | Potency [24] 63.1 µM
inconclusive: caspase-3 activation [5] 44.1% | Potency [6] 31.6 µM [rising, single point] | Potency [7] 12.6 µM [rising, single point] | Potency [8] 79.4 µM [rising, single point] | caspase-3 activation [10] 72.7% | caspase-3 activation [12] 68.7% | caspase-3 activation [13] 46.2% | Potency [14] 79.4 µM [rising, single point] | Potency [15] 79.4 µM [cytotoxic, single point] | Potency [16] 79.4 µM [cytotoxic, single point] | Potency [17] 79.4 µM [cytotoxic, single point] | Potency [18] 31.6 µM [cytotoxic, partial curve] | Potency [21] 79.4 µM [cytotoxic, partial curve, poor fit] | Potency [23] 50.1 µM [cytotoxic, partial curve, poor fit] | Potency [25] 70.8 µM [inhibitor, partial curve, poor fit] | activity change, negative = inhibition [26] -26.3% | activity change, negative = inhibition [27] -37.8% | Potency [28] 3.16 µM [activator, full curve] | activity, negative = inhibition [29] -40.9%
inactive: Potency [30]

Source: PubChem BioAssay (NCATS)
